# Assay results as given in the supplement of paper PMC12632987.
# Whole data set: some 2,300 sequences, median “median log2 fold change of GCK-ALFA target abundance (FLAG IP / Myc IP barcode read proportion)” near 0.095, cut for the lowest 2% near -0.47. This is one part of the list.
# B1: LC3A_132_293 (protein)
# chain: QEKKKEELLKEIKELIEKAKENIDDEELVRKYLEEIEELIKKAAEELTPEQLAELMKETAELLDELSRKFLEAGKEELAEEADGLRIEAESLALKAEEKL
# B2: LC3A_13_334 (protein)
# chain: TIKLEVETPEALRREAKAAIEAHPGETIEITVTVKTEEDVDAFAEALEEIIDLAIEKGNKLNITIKGKRDNVLELSLLVGAHIAERIDEADVTVSEEILP
# B3: LC3A_59_2033 (protein)
# chain: DEEIEKYVEKLREAKDDDEKMAEIILEALLKFKNDPEKLEKLKEAIIKTLVELGLLSEELAKELMEEAEKIVEEEKDYEEALKKILEELKIARNEEEIEE
# B4: LC3A_147_520 (protein)
# chain: ATYELTVSIDVLGDTELAKEEAEELAEELEELGFEVELEIEESVDEEGTPFVDITITAIAETEEELEKAKKLASEMAGEALDRIAAAGGAAIASISVEKL
# B5: LC3A_28_1178 (protein)
# chain: NHIKESSEKAIEEAKKAAKEKIPTVVTIEVPGNATQEDTELVKETIREIAEILKGIKGSAIIIDVESGVSQENLDLLMETAEEVEKKYPDISVIFALDEE
# B6: LC3A_free_46_2428 (protein)
# chain: YLVEVDIDLLHEDKEVLEKAVEEIKEKLKEIAEEYNAEIEIEVELSKLEDGSYFAEIKVKIKVPTKEIAEEVADDIIDSIDEIAEKYGVSYIISVEIKEE
# B7: LC3A_28_1140 (protein)
# chain: SALVEAAKAQIEADAEADKDEPEVLLRVTITSEMTVEQAREIMDHVEEVVEKLKDKEKIYIVVDATEPISQEVLDEIVERLEEIEKKYPNVSSIIALPED
# B8: LC3A_132_304 (protein)
# chain: EEKLAKELIKKAKEALKILKENPEEVEKVLKLLEEIKKLLEKLKKEVSPELAAKTFDEVMDILIELSRIAAKKGREEVAEEAFALAAEAAQLKSEAEKKI
# Target: MAP1LC3A, Q9H492
# Assay: median log2 fold change of GCK-ALFA target abundance (FLAG IP / Myc IP barcode read proportion) (log2 ratio); each designed protein is fused to an ALFA-tag nanobody in HEK293 cells to bring the named protein to FLAG-tagged glucokinase (GCK); Myc marks an untargeted standard; higher = target protein stabilised (more abundant)
# Conditions: target protein: 3xFLAG-MCP-GCK-ALFA reporter; HEK293 landing pad (RPLP)
# How it was run: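 HEK293 landing-pad cells received a recombined binder library fused to the ALFA nanobody and were induced with 2 μg mL^−1 doxycycline, then transfected with a plasmid encoding a FLAG-tagged target and a Myc-tagged standard. Lysates were collected after 48 h for anti-FLAG and anti-Myc immunoprecipitation, and the circular RNA barcodes were reverse transcribed, amplified and sequenced. Target abundance for each binder is the median log2 ratio of FLAG to Myc barcode read proportions. Barcodes had to reach a proportion of at least 10^−7 in both replicates, each binder needed at least 3 barcodes per replicate, a pseudocount of 10^−6 was applied, and the two replicates were pooled.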
row,Binder,median log2 fold change
1,B1,0.303
2,B2,0.0285
3,B3,0.246
4,B4,-0.41
5,B5,-0.252
6,B6,-0.217
7,B7,-0.0164
8,B8,0.287
